Experimental findings from the supplement of paper PMC12067230 are described below.

Single values of this set are uncertain.
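Also: [psi-pin-] Saccharomyces cerevisiae expressing SupN fusions, induced by 100 µM Cu2SO4, selected 7 d at 30 °C without adenine and uracil, scored by deep sequencing of output versus input.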

The first series in a line: amyloid nucleation score relative to library mode (yeast Sup35 reporter selection) (log enrichment difference); higher = more amyloid nucleation; sequences are the first 22 residues of the Bri2 peptide extended by up to 12 random residues. Conditions: random library (experiment): 1;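 active = nucleation score significantly above 0 at FDR 0.05; inactive = not significantly above 0 or absent from output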.
As to EASNCFAIRHFENKFAVETLICQITFGFVWDFRT, the amyloid nucleation score result is “inactive”.
In the case of EASNCFAIRHFENKFAVETLICQIVIDFYGVSDG, the amyloid nucleation score entry is “inactive”.
The sequence EASNCFAIRHFENKFAVETLICQIWAND showed an amyloid nucleation score of 5.74.
In the case of EASNCFAIRHFENKFAVETLICQIWDTIL, the amyloid nucleation score entry is “inactive”.
EASNCFAIRHFENKFAVETLICQIY: the amyloid nucleation score result was “inactive”.
For the sequence EASNCFAIRHFENKFAVETLICQKCGSWV, the amyloid nucleation score entry was “inactive”.
As to EASNCFAIRHFENKFAVETLICQKMGGTSSRVGE, the amyloid nucleation score result is “inactive”.
On to EASNCFAIRHFENKFAVETLICQKQNWSCRSMRA, for which the amyloid nucleation score entry is “inactive”.
As to EASNCFAIRHFENKFAVETLICQLCSAWASLLMD, the amyloid nucleation score entry was “inactive”.
For the sequence EASNCFAIRHFENKFAVETLICQLETGGHSQCCR, the amyloid nucleation score entry was “inactive”.
EASNCFAIRHFENKFAVETLICQLFSDKGTRPRR showed an amyloid nucleation score of 3.35.
Still for that read-out and setting: then EASNCFAIRHFENKFAVETLICQLKVVELARYLL, with “inactive”; and EASNCFAIRHFENKFAVETLICQLMIPGDHINSA, with 4.59; and EASNCFAIRHFENKFAVETLICQLQSRMCFTNRS, with “inactive”.
In turn, EASNCFAIRHFENKFAVETLICQLQVSRRTKVFR displayed an amyloid nucleation score of 2.75.
Regarding EASNCFAIRHFENKFAVETLICQLRHMTSIYLPG, the amyloid nucleation score result was “inactive”.
As for EASNCFAIRHFENKFAVETLICQLRI, the amyloid nucleation score result was “inactive”.
In the case of EASNCFAIRHFENKFAVETLICQLSLRGCVPVPG, the amyloid nucleation score entry is “inactive”.
On the same count and under the same terms, with EASNCFAIRHFENKFAVETLICQLVSTS the entry was “inactive”; with EASNCFAIRHFENKFAVETLICQLWS, 7.84.
EASNCFAIRHFENKFAVETLICQM: the amyloid nucleation score result was “inactive”.
For EASNCFAIRHFENKFAVETLICQMATVWALDQVK, the amyloid nucleation score result is “inactive”.
Regarding EASNCFAIRHFENKFAVETLICQMGLRQCYSRST, the amyloid nucleation score result was “inactive”.
The same measure, in the same setting: with EASNCFAIRHFENKFAVETLICQMGLSFRVVYTG the entry was “inactive”; with EASNCFAIRHFENKFAVETLICQMGSGPKLRHLS, “inactive”.
Same read-out and setting: then EASNCFAIRHFENKFAVETLICQMLGVWLCATWM, with “inactive”.
With EASNCFAIRHFENKFAVETLICQMLV, the amyloid nucleation score result is “inactive”.
Regarding EASNCFAIRHFENKFAVETLICQMNYSDNLWSCG, the amyloid nucleation score is -0.295.
As to EASNCFAIRHFENKFAVETLICQMRD, the amyloid nucleation score result is “inactive”.
EASNCFAIRHFENKFAVETLICQMVLRAVVAMRK had an amyloid nucleation score of -0.493.
Regarding EASNCFAIRHFENKFAVETLICQMWFSLAGTALA, the amyloid nucleation score entry is “inactive”.
With EASNCFAIRHFENKFAVETLICQNGARRSSDKGR, the amyloid nucleation score was 0.355.
In turn, EASNCFAIRHFENKFAVETLICQNGLAAPDVCRE came in with an amyloid nucleation score of 2.74.
Still for that read-out and setting: with EASNCFAIRHFENKFAVETLICQNIDRRVIIRYC the figure was 5.66.
For the sequence EASNCFAIRHFENKFAVETLICQNP, the amyloid nucleation score result is “inactive”.
Still for that read-out and setting: with EASNCFAIRHFENKFAVETLICQNPDVPEWLGLT the entry was “inactive”; with EASNCFAIRHFENKFAVETLICQNWSRTG, 1.27; with EASNCFAIRHFENKFAVETLICQPGVFVVGFVIG, “inactive”.
On the same count and under the same terms, with EASNCFAIRHFENKFAVETLICQPILAT the entry was “inactive”.
Consider EASNCFAIRHFENKFAVETLICQPLRDVGELLAV, for which the amyloid nucleation score entry was “inactive”.
EASNCFAIRHFENKFAVETLICQPMSPICVSRSR yielded an amyloid nucleation score of 0.636.
For EASNCFAIRHFENKFAVETLICQQGKHRNKEAPT, the amyloid nucleation score result is “inactive”.
The same measure, in the same setting: then EASNCFAIRHFENKFAVETLICQQPCCLLGVSCW, with “inactive”.
Turning to EASNCFAIRHFENKFAVETLICQQPWLECAVLVV, the amyloid nucleation score entry is “inactive”.
Still for that read-out and setting: with EASNCFAIRHFENKFAVETLICQQRGLRSVHIRM the entry was “inactive”; with EASNCFAIRHFENKFAVETLICQRAKH, “inactive”; with EASNCFAIRHFENKFAVETLICQRCEGQEGSRAS, “inactive”.
With EASNCFAIRHFENKFAVETLICQRCKRLGECSTK, the amyloid nucleation score result was “inactive”.
EASNCFAIRHFENKFAVETLICQRDDGRTCYEIQ: the amyloid nucleation score is -0.029.
In the case of EASNCFAIRHFENKFAVETLICQREVESRVMGEA, the amyloid nucleation score was -0.111.

The same series, now with this note: random library (experiment): 2.
EASNCFAIRHFENKFAVETLICQISLNV had an amyloid nucleation score of 6.3.
Still for that read-out and setting: then EASNCFAIRHFENKFAVETLICQKSMWKEDLERR, with 2.96.
In turn, EASNCFAIRHFENKFAVETLICQKSSGELVKLFC came in with an amyloid nucleation score of 3.81.
On the same count and under the same terms, then EASNCFAIRHFENKFAVETLICQKWSLCY, with “inactive”; and EASNCFAIRHFENKFAVETLICQL, with “inactive”; and EASNCFAIRHFENKFAVETLICQLASLCLRTYGC, with -0.285.
For the sequence EASNCFAIRHFENKFAVETLICQLFSLICVVKVG, the amyloid nucleation score was 4.96.
With EASNCFAIRHFENKFAVETLICQLKLYAWSRFRG, the amyloid nucleation score entry is “inactive”.
With EASNCFAIRHFENKFAVETLICQLMPPGHCTIYR, the amyloid nucleation score entry is “inactive”.
Regarding EASNCFAIRHFENKFAVETLICQLSSLYIIRMGC, the amyloid nucleation score entry was “inactive”.
Still for that read-out and setting: with EASNCFAIRHFENKFAVETLICQLWYMWRVMFKV the entry was “inactive”; with EASNCFAIRHFENKFAVETLICQLYTCCR, “inactive”; with EASNCFAIRHFENKFAVETLICQMFYGV, 6.77.
In the case of EASNCFAIRHFENKFAVETLICQMVFFLFADAPG, the amyloid nucleation score entry is “inactive”.
With EASNCFAIRHFENKFAVETLICQN, the amyloid nucleation score result is “inactive”.
Consider EASNCFAIRHFENKFAVETLICQNLANKHLCMPS, for which the amyloid nucleation score entry is “inactive”.
In the case of EASNCFAIRHFENKFAVETLICQNTCKER, the amyloid nucleation score result was “inactive”.
Same read-out and setting: with EASNCFAIRHFENKFAVETLICQNTFCFMRQMSE the figure was 3.25.
As for EASNCFAIRHFENKFAVETLICQNVITYDDTASL, the amyloid nucleation score is 8.25.
As for EASNCFAIRHFENKFAVETLICQNWGTRQYTSRD, the amyloid nucleation score came out at 3.97.
Same read-out and setting: then EASNCFAIRHFENKFAVETLICQPDNCVVIVMVQ, with 4.63.
Regarding EASNCFAIRHFENKFAVETLICQPEQFPMTSRVS, the amyloid nucleation score result was “inactive”.

The series is the same for the next values; noted with them: random library (experiment): 3.
Take EASNCFAIRHFENKFAVETLICQKCVSRLVNHA: the amyloid nucleation score entry was “inactive”.
Take EASNCFAIRHFENKFAVETLICQKHKRRPARHVC: the amyloid nucleation score entry is “inactive”.
Same read-out and setting: with EASNCFAIRHFENKFAVETLICQLDARKWPEGCG the entry was “inactive”; with EASNCFAIRHFENKFAVETLICQLDGPWIVIVFR, “inactive”.
Regarding EASNCFAIRHFENKFAVETLICQLLFRCSVSFSS, the amyloid nucleation score result is “inactive”.
As to EASNCFAIRHFENKFAVETLICQLMDVRSERWTD, the amyloid nucleation score entry was “inactive”.
For the sequence EASNCFAIRHFENKFAVETLICQLPLQPGMYETA, the amyloid nucleation score entry was “inactive”.
For the sequence EASNCFAIRHFENKFAVETLICQLRPTGDSTQRL, the amyloid nucleation score entry is “inactive”.
Same read-out and setting: then EASNCFAIRHFENKFAVETLICQLVVEVLVDGRV, with “inactive”; and EASNCFAIRHFENKFAVETLICQLWLLMMLLRSR, with “inactive”; and EASNCFAIRHFENKFAVETLICQMCINYRRNLRH, with “inactive”.
EASNCFAIRHFENKFAVETLICQMERRFG returned an amyloid nucleation score of 0.64.
EASNCFAIRHFENKFAVETLICQMGCGWGRYWRR returned an amyloid nucleation score of -0.396.
The same measure, in the same setting: with EASNCFAIRHFENKFAVETLICQMQRRVGPHLAG the entry was “inactive”.
As for EASNCFAIRHFENKFAVETLICQMS, the amyloid nucleation score entry was “inactive”.
For the sequence EASNCFAIRHFENKFAVETLICQMSLAMGWCWRI, the amyloid nucleation score result is “inactive”.
EASNCFAIRHFENKFAVETLICQMSRAVLQTTRS: the amyloid nucleation score entry was “inactive”.
In the case of EASNCFAIRHFENKFAVETLICQMVGRVTWGWR, the amyloid nucleation score result was “inactive”.
On the same count and under the same terms, with EASNCFAIRHFENKFAVETLICQNCFNVLRISAT the figure was 6.34; with EASNCFAIRHFENKFAVETLICQNGSG, “inactive”.
As for EASNCFAIRHFENKFAVETLICQNWANDVDRRC, the amyloid nucleation score turned out to be 1.42.
With EASNCFAIRHFENKFAVETLICQPGWE, the amyloid nucleation score result was “inactive”.
On the same count and under the same terms, then EASNCFAIRHFENKFAVETLICQPLH, with “inactive”; and EASNCFAIRHFENKFAVETLICQPQGQYCDGWWR, with 1.3; and EASNCFAIRHFENKFAVETLICQQDHVKTSCVGP, with “inactive”.
For the sequence EASNCFAIRHFENKFAVETLICQQEGRQDGQWGR, the amyloid nucleation score result was “inactive”.
As for EASNCFAIRHFENKFAVETLICQQGARYTKDLIR, the amyloid nucleation score entry was “inactive”.
In turn, EASNCFAIRHFENKFAVETLICQQL displayed an amyloid nucleation score of 0.297.
Take EASNCFAIRHFENKFAVETLICQQMRSSFKPSTV: the amyloid nucleation score entry was “inactive”.
In the case of EASNCFAIRHFENKFAVETLICQQWEGCPVANRR, the amyloid nucleation score entry was “inactive”.
Still for that read-out and setting: then EASNCFAIRHFENKFAVETLICQRERDN, with “inactive”.
